According to article PMC6919601, “Identification of Plasmodium dipeptidyl aminopeptidase allosteric inhibitors by high throughput screening” (PLoS ONE, 2019):
Where “and” joins values, the source holds several entries; their conditions need not be identical. Equal entries are not always repeated. In all, about 110,000 compounds went through this assay and about 230 (0.21%) showed an effect of 50% or more. This is one part of the list.

Each compound was assayed against DPAP1 (Plasmodium falciparum, UniProt Q8IIJ9) (assay: primary screen, percent inhibition; read by cleavage of a fluorogenic dipeptide substrate; higher = more effect of the substance).
Design: species or system P. falciparum D10 trophozoite lysates; single well
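Also: 30 min substrate incubation versus DMSO and 10 µM JCP410 controls.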

Sequence of DPAP1 (Q8IIJ9 whole entry, looked up): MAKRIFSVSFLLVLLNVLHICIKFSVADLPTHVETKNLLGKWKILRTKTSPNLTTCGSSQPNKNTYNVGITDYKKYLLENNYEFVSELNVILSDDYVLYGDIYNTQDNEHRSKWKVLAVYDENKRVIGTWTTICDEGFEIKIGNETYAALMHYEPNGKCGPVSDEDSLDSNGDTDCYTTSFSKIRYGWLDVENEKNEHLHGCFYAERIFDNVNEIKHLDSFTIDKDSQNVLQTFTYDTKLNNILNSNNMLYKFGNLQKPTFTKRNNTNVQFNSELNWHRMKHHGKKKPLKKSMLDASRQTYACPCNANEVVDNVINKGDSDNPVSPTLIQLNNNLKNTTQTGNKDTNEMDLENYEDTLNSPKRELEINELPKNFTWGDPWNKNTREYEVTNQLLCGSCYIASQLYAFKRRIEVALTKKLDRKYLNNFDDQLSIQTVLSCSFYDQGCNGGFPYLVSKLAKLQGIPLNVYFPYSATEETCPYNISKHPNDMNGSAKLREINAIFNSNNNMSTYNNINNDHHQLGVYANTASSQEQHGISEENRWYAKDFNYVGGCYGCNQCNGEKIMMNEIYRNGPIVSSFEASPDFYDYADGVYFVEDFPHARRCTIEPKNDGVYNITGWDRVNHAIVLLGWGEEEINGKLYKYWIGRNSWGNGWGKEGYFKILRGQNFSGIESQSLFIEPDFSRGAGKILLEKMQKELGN

Row | Structure (SMILES) | % Inhibition @ 10 uM
1 | CCCCOc1ccc(C2c3c(-c4ccccc4O)n[nH]c3C(=O)N2CCCOC)cc1 (centres unmarked) | 2.02%
2 | FC(F)(F)c1ccc2c(c1)N(CCCN1CCN(C34CC5CC(CC(C5)C3)C4)CC1)c1ccccc1S2 | 5.37%
3 | O=C(Nc1cc(Cl)ccc1Cl)c1ccccc1Br | 7.72%
4 | Cc1cccc2c3c([nH]c12)C(=O)CC(C)(C)S3 | -1.51%
5 | CCC1=C(c2ccc(C)cc2)S(=O)(=O)N=C1N1CCC(C(=O)NCC(C)c2ccccc2)CC1 (centres unmarked) | 1.63%
6 | CN(Cc1ccccc1)C(=O)c1ccc(N(C)S(C)(=O)=O)cc1 | 0.964%
7 | CC(=O)C(=CNc1cc(-c2ccccc2)nn1-c1ccccc1)C(C)=O | -2.8%
8 | COc1ccc(-c2nnc3n(Cc4ccc(F)cc4)c(=O)c4ccccc4n23)c(OC)c1OC | -1.72%
9 | COc1ccc(C(=O)NCC2(c3ccccc3)CCOCC2)c(OC)c1 | -1.68%
10 | O=C(NCc1cccnc1)c1ccc(-n2nc(C(F)(F)F)c3c2CCCC3)cc1 | 8.95%
11 | CCNc1nc(SCCOc2ccccc2)nc(N(C)C)n1 | -6.18% and -6.02%
12 | COc1ccc(CCNC(=O)Cn2c(SCc3ccc(F)cc3)nc3ncccc32)cc1OC | 3.3%
13 | COc1cc(C(=O)N2CCC3(CC2)N=C(c2ccc(Cl)cc2)C(=O)N3)cc(OC)c1OC | 8.11%
14 | O=C(O)c1ccc(S(=O)(=O)NCC2CCCCC2)cc1 | -0.551%
15 | CC1=NC(C)(C)Cc2cc(C)c(C)cc21 | 2.38%
16 | O=C(Nc1cccc2cccnc12)c1ccccc1Cl | -0.425%
17 | Oc1ccccc1C1=NN2C(C1)c1ccccc1OC2c1cccc(F)c1 (centres unmarked) | -1.68%
18 | COc1c2ccccc2c(OC)c2ccccc12 | 1.12%
19 | CCOc1ccc(CCNC(=O)C(C)n2nc(C)c3c(C)n(-c4ccccc4)nc3c2=O)cc1 (centres unmarked) | -2.49%
20 | COc1ccc(/C(=N\C(=S)Nc2ccc(C)cc2)NCS(=O)(=O)c2ccc(C)cc2)cc1 | -2.59%
21 | O=C1c2cccc3cccc(c23)C(=O)N1C(c1ccccc1)c1ccccc1 | -0.143%

Row | Structure (SMILES) | % Inhibition @ 10 uM
22 | O=C(c1ccc(Br)o1)N1CCN(c2ccc3nnc(-c4ccccc4)n3n2)CC1 | -1.37%
23 | Cn1nc(C(=O)NCc2cccc(Cl)c2)c2c1-c1ccccc1OC2 | -9.28%
24 | CCO/C(O)=C1/C(C)=Nc2nc(SCC)nn2C1c1ccc(OC)cc1 (centres unmarked) | 6.07%
25 | COc1cccc(OC)c1C(=O)Nc1nc(C)c(C(C)=O)s1 | 0.0265%
26 | C[C@@H](C[C@H](NC(=O)OCc1ccccc1)C(=O)NCC#N)c1ccccc1OC(F)(F)F | 1.61%
27 | CCOc1cccc2c1OC1(C)CC2/C(=C(\C)O)C(=O)N1 (centres unmarked) | 4.27%
28 | Cc1ccc2c(c1)-c1onc(C(=O)Nc3nccs3)c1CO2 | 0.589%
29 | CC(C)(C)/N=S1\OC(c2ccccc2)c2ccccc21 (centres unmarked) | 0.163%
30 | O=C(O)c1ccc(CNCCc2ccc(Cl)cc2)s1 | -0.637%
31 | COc1ccc(-c2nc(CS(=O)(=O)CC(=O)NCCCOC(C)C)c(C)o2)cc1 | -0.138%
32 | O=S(=O)(c1ccc(Cl)nc1)N(c1ccccc1)c1ccccc1 | 1.59%
33 | Cc1cccc2sc(NC(=O)CCNS(=O)(=O)c3cccc4nonc34)nc12 | 2.84%
34 | CCOc1cccc(C2C3=C(O)CCCC3=NC(C)=C2C(=O)Nc2ccccc2OC)c1 (centres unmarked) | -1.64%
35 | COc1ccc(C2=NS(=O)(=O)N(C)C(C(=O)Nc3ccn(Cc4ccc(C)cc4)n3)=C2)cc1 | 3.92%
36 | COc1cccc(C2CC(=O)Nc3cc(C)c(C)cc32)c1 (centres unmarked) | -3.72%
37 | CCOC(=O)N(Cc1ccc(Cl)cc1)C(=O)CC#N | 0.408%
38 | Cc1ccc(C(=O)NCc2cn3c(C)csc3n2)cc1 | -2.45%
39 | Cc1cc(-c2ccccc2)c2c3c(cn2n1)c(=O)n(C)c(=O)n3C | -5.63%
40 | CCOC(=O)c1c(-c2ccc(Cl)cc2)csc1N | 10.9%
41 | CCOC(=O)c1c(-c2ccccc2)csc1NC(=O)c1cc(C)on1 | 4.12%
42 | CC(NC(=O)c1nn(C)c2c1CS(=O)(=O)c1ccccc1-2)c1ccccc1 (centres unmarked) | 1.51%

Row | Structure (SMILES) | % Inhibition @ 10 uM
43 | CCOc1ccc(CCNC(=O)Cn2ccc3cc(S(=O)(=O)N4CCCC4)ccc32)cc1 | -8.25%
44 | CCOc1ccc(C2C(C(=O)c3ccc(C)cc3)=C(O)C(=O)N2CCCC(=O)O)cc1 (centres unmarked) | -3.75%
45 | NC(=S)N/N=C1/CCCCC1c1ccccn1 (centres unmarked) | 7.75%
46 | CCCCNC(=O)C(CC)n1ccc2cc(S(=O)(=O)N3CCCCC3)ccc21 (centres unmarked) | 6.58%
47 | CC(C)(C)C1=Nn2c(nnc2-c2ccccc2)SC1 | 1.74%
48 | CCN(CCN(C)C)Cc1ccc(Cl)cc1Cl | -5.94%
49 | Cc1cccc(C(=O)Nc2cc(C)ccn2)c1 | -5.34%
50 | COc1ccc(-c2noc(-c3ccc(OC)cc3)n2)cc1 | 1.72%
51 | O=P1(O)c2ccccc2Nc2ccccc21 | 0.878%
52 | Cn1c2ccccc2c2nn3c(SCc4ccccc4)nnc3nc21 | -1.18%
53 | O=C(Cn1cc(SCc2ccccc2)c2ccccc21)N1CCOCC1 | -4.93%
54 | Cc1ccccc1C(=O)Nc1sc2c(c1C(=O)O)CCCC2 | 0.0792%
55 | CC(C)CNS(=O)(=O)c1ccc(CCC(=O)Nc2ccccc2F)cc1 | -4.68%
56 | CC(=O)Nc1ccc(NC(=O)CN(c2ccc(C)cc2)S(=O)(=O)c2ccc(F)cc2)cc1 | 0.245%
57 | O=C(Cn1c(=O)c2cccn2c2cccnc21)NCCCN1CCCC1=O | -4.16%
58 | Cc1ccc(CNC(=O)c2cc(O)nc3ccc(S(=O)(=O)N4CCOCC4)cc23)cc1 | -3.36%
59 | CCOc1ccc(C2CC(c3cccc(OC)c3OC)n3ncnc3N2)cc1Cl (centres unmarked) | -3.6%
60 | CCc1ccc(-c2cc3c(=O)n(CC(=O)NCCCOC(C)C)nc(C)n3n2)cc1 | -1.08%
61 | CCOc1ccc(C2c3c(oc4ccccc4c3=O)C(=O)N2c2ccccn2)cc1OCC (centres unmarked) | 0.331%
62 | COc1ccccc1-c1c(C)nn2c(SCC(=O)NC3CCCC(C)C3C)cc(C)nc12 (centres unmarked) | 0.0198%
